Test results reported in patent US12447159B2 (AELIS FARMA, priority 2018, dated 2025).

Columns and labels:
CYP3A4 = assay: CYP induction (mRNA level); type: in vitro ADME; conditions: 10 nM, 100 nM and 1 μM
rats and dogs = assay: 28-day oral toxicity studies (GLP), results printed for rats and dogs together
dogs = assay: 28-day oral toxicity study (GLP) in dogs; conditions: for Blood chemistry / Cardiovascular parameters / Organ weight / Urinalysis: dogs
Source text: […].

[1] = test system: THC-induced impairment of social interaction; assay: THC-induced impairment of social interaction; conditions: per os 3 h before THC 3 mg/kg ip; mice

COc1ccc(CO[C@H]2CC[C@@]3(C)C(=CC[C@H]4[C@@H]5CC[C@H](C(C)=O)[C@@]5(C)CC[C@@H]43)C2)cc1 [3pMBP, 3β-(4-methoxybenzyloxy)pregn-5-en-20-one]
Expression of CYP3A4 (CYP3A4): did not increase the expression
Body temperature (rats and dogs; 2 mg/kg, 28 days): NOE
Clinical signs (rats and dogs; 2 mg/kg, 28 days): NOE
Mortality (rats and dogs; 2 mg/kg, 28 days): NOE
Body temperature (rats and dogs; 9 mg/kg, 28 days): NOE
Clinical signs (rats and dogs; 9 mg/kg, 28 days): NOE
Mortality (rats and dogs; 9 mg/kg, 28 days): NOE
Body temperature (rats and dogs; 36 mg/kg, 28 (+14) days): NOE
Clinical signs (rats and dogs; 36 mg/kg, 28 (+14) days): NOE
Mortality (rats and dogs; 36 mg/kg, 28 (+14) days): NOE
Body temperature (rats and dogs; 36 mg/kg, 28 days): NOE
Clinical signs (rats and dogs; 36 mg/kg, 28 days): NOE
Mortality (rats and dogs; 36 mg/kg, 28 days): NOE
NOEL (Non observed effect level) (dogs; dog): > 36 mg/kg/day/28 days
Blood chemistry (dogs; 2 mg/kg, 28 days): NOED
Cardiovascular parameters (dogs; 2 mg/kg, 28 days): NAR, NOED
Organ weight (dogs; 2 mg/kg, 28 days): NOED
Urinalysis (dogs; 2 mg/kg, 28 days): NOED
Blood chemistry (dogs; 9 mg/kg, 28 days): NOED
Cardiovascular parameters (dogs; 9 mg/kg, 28 days): NAR, NOED
Organ weight (dogs; 9 mg/kg, 28 days): NOED
Urinalysis (dogs; 9 mg/kg, 28 days): NOED
Blood chemistry (dogs; 36 mg/kg, 28 (+14) days): NOED
Organ weight (dogs; 36 mg/kg, 28 (+14) days): NOED
Urinalysis (dogs; 36 mg/kg, 28 (+14) days): NOED
Blood chemistry (dogs; 36 mg/kg, 28 days): NOED
Cardiovascular parameters (dogs; 36 mg/kg, 28 days): NAR, NOED
Organ weight (dogs; 36 mg/kg, 28 days): NOED
Urinalysis (dogs; 36 mg/kg, 28 days): NOED
% inhibition [1]: 100%
ID50 [1]: 0.005 mg/kg
ID100 [1]: 0.015 mg/kg
